In PubChem BioAssay AID686978 (National Center for Advancing Translational Sciences (NCATS), 2013):
In all, about 420,000 compounds went through this assay and about 64,000 (15%) were called active. This list was built around the results that the source calls inconclusive (neither active nor inactive); the mix of calls is not that of the screen. Calls follow the shape of the dose curve; as a rule, active = well fitted inhibition curve with a large enough effect; inconclusive = small, poorly fitted or top-dose-only effect; inactive = flat fitted curve, though single readings scatter. No potency is given beside an inconclusive call; the fits are too rough.

Assay: qHTS for Inhibitors of human tyrosyl-DNA phosphodiesterase 1 (TDP1): qHTS in cells in absence of CPT; also: nearly all actives have a fitted effect of over 55% in size
Conditions: DT40 Tdp1-/- hTDP1 cells, no CPT, ATP luminescence, 48 h; activity change, negative = growth inhibition: at 46.2 µM (top of the series)
In short: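 Readout: luminescence from CellTiter-Glo after 30 min in the dark at RT. Cells: DT40 Tdp1-/- with stable hTDP1, 400/well. Exposure: compounds alone, ≥48 hr, 37 °C.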
% is scaled to controls: 0 for no effect and ±100 for the full control effect; potency is read from the fitted curve at half-maximal effect; tags tell the direction and shape of the fitted curve.

Row | Structure (SMILES) | Potency | activity change, negative = growth inhibition
1 | O=C(NC1CCCCC1)c1cccc(OCc2ccccc2)c1 | inconclusive [inhibitor, partial curve] | 
2 | COc1ccc(S(=O)(=O)N2CCOCC2)cc1NC(=O)c1ccc2c(c1)OCO2 | inactive | 
3 | O=C1C2C3c4ccccc4C(c4ccccc43)[C@@H]2C(=O)N1c1cccnc1 (some centres undefined) | active: 23.1 µM | 
4 | CCOC(=O)c1c(-c2ccc(OC)cc2)csc1NC(=O)C1CCCO1 (centres undefined) | inconclusive [inhibitor, single point] | 
5 | NC(=O)c1[nH]cnc1N=NN(CCO)Cc1ccccc1 | inactive | 
6 | CC1(C(=O)NS(=O)(=O)c2cccc(F)c2)CCN1C(=O)C1CCCCC1 (centres undefined) | inactive | 
7 | CCn1cc(C=C2C(=O)c3ccccc3C2=O)c2ccccc21 | inconclusive [inhibitor, single point] | 
8 | CN(c1ccccc1)S(=O)(=O)c1ccc(C(=O)N2CCCC(C(F)(F)F)C2)cc1 (centres undefined) | inconclusive [inhibitor, single point] | 
9 | CCN(C(=O)CSc1nc2ccccc2[nH]1)C1CCS(=O)(=O)C1 (centres undefined) | inactive | 
10 | CCOc1ccc(CNC(=O)c2ccc3nc(CC)c(CC)nc3c2)cc1OC | inconclusive [inhibitor, single point] | 
11 | O=C(Nc1ccc(C(F)(F)F)cc1)c1ccc(NC(=O)C2CCCO2)cc1 (centres undefined) | inconclusive [inhibitor, partial curve] | 
12 | CN1CCN(/C=N/c2sc3c(c2C#N)CCCCC3)CC1 | inconclusive [inhibitor, single point] | 
13 | COCC(C)n1c(SCc2cc(=O)n3cc(C)ccc3n2)nc2ccccc2c1=O (centres undefined) | active: 10.3 µM | 
14 | CC(C)CC(=O)Nc1ccc(S(=O)(=O)NCc2ccco2)cc1 | inconclusive [inhibitor, single point] | 
15 | O=C(O)c1ccccc1C(=O)Nn1cnnc1 | inactive | 
16 | Nn1cnc2sc3c(c2c1=O)CCC3 | inactive | 
17 | Cc1[nH]n(-c2cccc3ccccc23)c(=O)c1/C=N/c1sc2c(c1C#N)CCC2 | inconclusive [inhibitor, full curve] | 
18 | CN1CCN(C(=O)c2cc(=O)c3cc(Cl)ccc3o2)CC1 | inactive | 
19 | COc1ccc(Nc2c(C3CC3)nc3nc(C)cc(C)n23)cc1 | inconclusive [inhibitor, single point] | 
20 | Cc1ccc(S(=O)(=O)N2CCC(C(=O)OCC(=O)N3CCCC(C)C3)CC2)cc1C (centres undefined) | inactive | 
21 | COc1cccc(OCC(O)CNC(=O)c2oc3ccc(C)cc3c2C)c1 (centres undefined) | inconclusive [inhibitor, single point] | 
22 | CCC(c1nnnn1C(C)(C)CC)N(CCN1CCOCC1)Cc1cc2cc(C)ccc2[nH]c1=O (centres undefined) |  | inconclusive: -33.9% [inhibitor]
23 | COc1cccc(Cc2nc3ccccc3nc2SCC(=O)Nc2ccccc2F)c1 | inactive | 
24 | CN(Cc1ccc(F)cc1)C(=O)CN1CCN(S(=O)(=O)c2ccc3c(c2)OCCCO3)CC1 | inconclusive [inhibitor, single point] | 
25 | CN(C)c1ccc(CNC(=O)c2ccc(NC(=O)c3nsc4ccccc34)cc2)cc1 | inconclusive [inhibitor, single point] | 

Row | Structure (SMILES) | Potency | activity change, negative = growth inhibition
26 | COC(=O)c1ccc(NC(=O)C2CCCN2C(=O)OCc2ccccc2)cc1 (centres undefined) | inactive | 
27 | O=[N+]([O-])c1ccc(/C=N/Nc2nc(-c3ccccc3)c3cc(Br)ccc3n2)o1 | active: 20.6 µM | 
28 | O=C(Cn1c(=O)n(-c2ccccc2)c(=O)c2c3c(sc21)CCCC3)Nc1cccc(F)c1 | inactive | 
29 | Cc1ccc(S(=O)(=O)CCC(=O)c2ccc(O)cc2O)cc1 | active: 1.16 µM | 
30 | Cc1ccccc1NC(=S)N(CCN1CCCCCC1)Cc1cccs1 | inconclusive [inhibitor, single point] | 
31 | COc1ccc(NC(=O)NC2(C(=O)N3CCOCC3)CCCCC2)cc1 | inactive | 
32 | O=C(OC1CCCCC1=O)c1cc(Cl)ccc1[N+](=O)[O-] (centres undefined) | inactive | 
33 | CC(=O)c1c(C)[nH]c(C(=O)COc2ccc3c(C)cc(=O)oc3c2)c1C | active: 20.6 µM | 
34 | Cc1cc(C(=O)NNc2ccc(C)c(C)c2)no1 | inactive | 
35 | COc1ccc(/C=c2\s/c(=C(/C#N)C(=O)NCc3ccco3)n(-c3ccccc3)c2=O)cc1 | inconclusive [inhibitor, single point] | 
36 | Nc1nnc(SCC(=O)OCC(=O)c2ccccc2Br)s1 | inconclusive [inhibitor, single point] | 
37 | COc1ccc(-c2cc(-c3nnc(COC(=O)c4ccncc4)o3)c3ccccc3n2)cc1OC | active: 9.2 µM | 
38 | O=C(Nc1ccccn1)C1CCCN(c2ncnc3c2nc2n3CCCCC2)C1 (centres undefined) | active: 14.6 µM | 
39 | N#CCC(=O)Nc1ccc(C(=O)OCC(=O)c2ccc3c(c2)NC(=O)CO3)cc1 | inactive | 
40 | CCOc1cccc(-c2nn3c(-c4ccccn4)nnc3s2)c1 | inconclusive [inhibitor, single point] | 
41 | Cc1cccc(CNC(=O)c2ccc3nc(-c4ccccc4)c(-c4ccccc4)nc3c2)c1 | inconclusive [inhibitor, single point] | 
42 | CCC(=O)c1ccc(OCCn2cnc3ccccc32)cc1 | inconclusive [inhibitor, single point] | 
43 | Cc1c(C(=O)NCc2ccccc2Cl)cccc1-n1cnc2cccnc21 | active: 23.1 µM | 
44 | Cc1cc(C)cc(NC(=O)CN2CCC(NC(=O)c3cccc(F)c3)CC2)c1 | inconclusive [inhibitor, single point] | 
45 | CC(C)c1cc(C(=O)N2CCCC(C(=O)c3ccc4ccccc4c3)C2)on1 (centres undefined) | active: 25.9 µM | 
46 | CN1CCN(C(=O)c2sc(=S)n(-c3ccccc3)c2N)CC1 | inconclusive [inhibitor, single point] | 
47 | CC(CNC(=O)c1ccccc1Cl)c1ccccc1 (centres undefined) | inactive | 
48 | C/C(=N/N=C/c1ccc(N(C)C)cc1)c1ccccc1 | inconclusive [inhibitor, single point] | 
49 | CCOC(=O)c1cc(-c2ccccc2)nc2nc(N(CC)CC)sc12 | inconclusive [inhibitor, single point] | 
50 | O=[N+]([O-])c1ccc2c(c1)C(N1CCOCC1)/C(=C/COc1ccc3ccccc3c1Br)O2 (centres undefined) | inconclusive [inhibitor, single point] | 

Row | Structure (SMILES) | Potency | activity change, negative = growth inhibition
51 | COc1cccc(/C=C/C(=O)c2ccc3c(c2)OCCO3)c1OC | inconclusive [inhibitor, single point] | 
52 | CC1(C(=O)NCc2cccc3ccccc23)CCN1Cc1ccc(-c2ccccc2)o1 (centres undefined) | active: 13 µM | 
53 | C=C1CCN([C@@H](CC(C)C)C(=O)N2CCCC2)S(=O)(=O)c2ccccc21 | inconclusive [inhibitor, single point] | 
54 | O=C(c1ccc([N+](=O)[O-])cc1)N1CCN(Cc2ccccc2[N+](=O)[O-])CC1 | inconclusive [inhibitor, single point] | 
55 | O=C(Cc1ccccc1)N/N=C/c1ccc2cccc(O)c2n1 | active: 2.59 µM | 
56 | CN(C)c1ccc(/C=N\Nc2ccc([N+](=O)[O-])cc2[N+](=O)[O-])cc1Cl | inconclusive [inhibitor, partial curve] | 
57 | O=C(CSc1nc2c([nH]c3ccccc32)c(=O)n1-c1ccc(F)cc1)N1CCCc2ccccc21 | inactive | 
58 | CC(C)c1cc(Cn2c3ccccc3c(=O)n2C(C)Cn2cc(C3CC3)nn2)on1 (centres undefined) | inactive | 
59 | N=C1C(=O)OCC1c1ccccc1NC(=O)CN1CCOCC1 (centres undefined) | inactive | 
60 | Cc1ccc2nc(N3CCN(C(=O)c4ccc(F)cc4)CC3)c(C#N)cc2c1 | active: 23.1 µM | 
61 | O=C(CCn1cnc(-c2ccccc2)c1-c1ccccc1)N/N=C/c1ccc(O)cc1 | inconclusive [inhibitor, single point] | 
62 | COc1ccc(-c2[nH]ncc2[C@@H]2C[C@H]3CN(Cc4ccccc4C)C(=O)[C@]34CCCN24)cc1 | inconclusive [inhibitor, single point] | 
63 | O=C(O)c1cccc(Nc2c3ccccc3nc3ccccc23)c1 | inconclusive [inhibitor, single point] | 
64 | Cc1cccc(C)c1OCc1nc2c3cnn(-c4ccccc4Br)c3ncn2n1 | inconclusive [inhibitor, single point] | 
65 | COc1cc(NC(=O)c2cc(C3CC3)nc3c2c(C)nn3-c2ccc(C)cc2)cc(OC)c1 | active: 6.51 µM | 
66 | Cn1nc(-c2ccc(Cl)cc2)c2cc(C(=O)N3CCN(C(=O)c4ccco4)CC3)sc21 | inconclusive [inhibitor, single point] | 
67 | CC1CC(C)CN(c2cc(N(C)CCO)c([N+](=O)[O-])c3nonc23)C1 (centres undefined) | inconclusive [inhibitor, single point] | 
68 | COCCNC(=O)C(c1ccc(C)o1)N(Cc1ccco1)C(=O)c1snc(C(N)=O)c1N (centres undefined) | inactive | 
69 | CC(C)(C)C1CCC2(CC1)C(C#N)=C(SCC(=O)NC1CCCCC1)NC(=O)C2C#N (centres undefined) | active: 16.4 µM | 
70 | CCc1nc2ccc(C(=O)N3CCN(S(=O)(=O)CC)CC3)cn2c1N(CC)CCOC | inactive | 
71 | Cc1n[nH]c(=O)c2c(NC(=O)CSc3nncn3C(C)C)oc(C)c12 | inactive | 
72 | C=CCOc1ccc(/C=C/C(=O)OCC(=O)NCCC2=CCCCC2)cc1 | inconclusive [inhibitor, single point] | 
73 | CCC(C)NC(=S)Nc1ccc(C(=O)OC)cc1 (centres undefined) |  | inconclusive: -34.1% [inhibitor]
74 | COC(=O)c1ccc(NC(=O)CCNS(=O)(=O)c2cccc3nsnc23)cc1 | inactive | 
